Source: the supplement of paper PMC7335073
The full ranking holds about 4,100 sequences; the median of “relative CpG methylation activity (normalised to average over all NNNCGNNN flanks)” is about 0.87, and the highest 2% start at about 2.4. This is one part of the list.

biological target: DNMT3A catalytic domain (mouse) (UniProt O88508); test: relative CpG methylation activity (normalised to average over all NNNCGNNN flanks) (relative (1 = mean)); higher = more methylation of the central CpG; settings: system: in vitro, murine catalytic domain; CpG state: hemimethylated substrate pool; residues: 608-908
Procedure: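 Deep enzymology: a pool of dsDNA substrates with a central CpG flanked by 10 random nucleotides on each side was methylated by the murine DNMT3A or DNMT3B catalytic domain (0.8 mM SAM, 37 °C, 60 min). Methylation was then read out by hairpin ligation, bisulfite conversion and NGS. Values are the average methylation of each NNNCGNNN context (±3 flanks; the outer flanks are random and averaged over), normalised to the overall mean, so 1 = average activity.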

| Sequence | relative CpG methylation activity |
| --- | --- |
| TCGCGCAG | 0.513 |
| AAGCGAAT | 0.339 |
| CCTCGGGA | 0.774 |
| TACCGTCG | 1.23 |
| AACCGTCA | 1.39 |
| GTCCGACT | 1.26 |
| TCTCGTGG | 0.025 |
| GCCCGGGG | 0.455 |
| CTCCGATA | 1.57 |
| CGGCGCCT | 1.51 |
| GTCCGATC | 2.18 |
| TAACGGTA | 0.728 |
| CATCGCTC | 1.82 |
| CGCCGTTG | 0.227 |
| GATCGTTC | 0.508 |
| AGTCGTCC | 1.29 |
| CACCGTTC | 1.25 |
| AATCGTTA | 0.333 |
| TCTCGGGT | 0.851 |
| CCTCGCCT | 2.37 |
| GGCCGACT | 1.02 |
| ACTCGAAC | 1.18 |
| CAACGGAA | 1.01 |
| GTACGGCA | 1.81 |
| CCACGGTG | 1.05 |

| Sequence | relative CpG methylation activity |
| --- | --- |
| CCCCGACT | 1.08 |
| GTCCGGCA | 1.64 |
| TAGCGACT | 0.49 |
| CACCGACG | 0.743 |
| AGGCGAGC | 1.01 |
| CGTCGTCC | 1.43 |
| CAACGCAA | 0.864 |
| ATTCGGCG | 0.659 |
| AGGCGTAT | 0.144 |
| CTTCGCCC | 1.88 |
| TAGCGTGC | 0.134 |
| GATCGTCG | 0.625 |
| CAACGGGT | 0.889 |
| TAGCGAGG | 0.294 |
| TGGCGCAC | 0.846 |
| CCCCGCCC | 2.18 |
| AGTCGGAC | 0.436 |
| GAGCGCTC | 1.3 |
| GTGCGACA | 1.52 |
| CGGCGCAG | 0.391 |
| GAGCGACC | 0.754 |
| TTGCGGGG | 0.921 |
| TGGCGTCC | 1.09 |
| AAACGGTA | 0.536 |
| GCCCGAGT | 1.17 |

| Sequence | relative CpG methylation activity |
| --- | --- |
| ACCCGAGG | 0.606 |
| GAACGCAT | 0.638 |
| GAGCGAGA | 0.37 |
| GATCGTAG | 0.156 |
| AGGCGACC | 0.55 |
| GAGCGACG | 0.63 |
| CGCCGATA | 0.761 |
| GGTCGGGG | 0.025 |
| TCACGCGT | 0.964 |
| GGACGCGA | 0.481 |
| ACTCGCCT | 2.31 |
| AGTCGGCG | 0.479 |
| ACTCGTGC | 0.588 |
| TCGCGCTT | 1.08 |
| ACACGATG | 0.901 |
| TAGCGACA | 0.498 |
| ACACGAAT | 1.04 |
| GGACGCAC | 1.05 |
| CAGCGAAT | 0.31 |
| GGTCGTGG | 0.319 |
| GGTCGCGA | 0.354 |
| CACCGGTG | 0.433 |
| CGACGGAG | 0.179 |
| GGACGGGC | 0.536 |
| CAGCGCGG | 0.084 |

| Sequence | relative CpG methylation activity |
| --- | --- |
| TAGCGACG | 0.377 |
| GCACGCGT | 1.15 |
| TTGCGAGC | 1.57 |
| TTGCGCGA | 1.22 |
| CGCCGAGG | 0.61 |
| TGACGTCC | 1.32 |
| TCTCGTCT | 1.63 |
| GTGCGGTG | 0.882 |
| TAACGACG | 0.623 |
| TATCGTCT | 1.27 |
| ATGCGGGA | 0.761 |
| AACCGCTC | 1.99 |
| GTTCGAGT | 0.592 |
| TGCCGTGA | 0.388 |
| CTGCGCCG | 1.93 |
| CTCCGGCG | 1.55 |
| GAGCGGTG | 0.476 |
| GTTCGATA | 0.857 |
| ATCCGGGC | 1.22 |
| TGGCGACC | 0.806 |
| AACCGACG | 0.868 |
| TAGCGCCG | 0.827 |
| GAACGCAA | 0.701 |
| ACTCGTTC | 1.29 |
| TGTCGAGG | 0.417 |

| Sequence | relative CpG methylation activity |
| --- | --- |
| GTGCGTGA | 0.99 |
| AACCGGAT | 0.63 |
| TGTCGTAG | 0.46 |
| GAACGGTT | 0.355 |
| CGACGATG | 0.429 |
| TGTCGCCG | 0.913 |
| TTACGACC | 2.05 |
| TAACGAAA | 0.751 |
| AGTCGTTA | 0.561 |
| GAGCGATA | 0.521 |
| GTGCGCCA | 2.05 |
| AAACGAAG | 0.237 |
| CGACGTTC | 1.01 |
| GACCGCGG | 0.58 |
| AGTCGATA | 0.441 |
| TTTCGCTT | 1.99 |
| GGGCGCTC | 1.22 |
| AGACGGAG | 0.27 |
| ATACGCTA | 2.15 |
| CACCGCCA | 1.32 |
| TCTCGGGC | 0.588 |
| GAACGATA | 0.529 |
| CAACGACA | 0.845 |
| CGCCGTGG | 0.287 |
| GGGCGCAA | 0.9 |

| Sequence | relative CpG methylation activity |
| --- | --- |
| CACCGAAG | 0.439 |
| AGACGTCT | 1.14 |
| TGCCGGCC | 0.873 |
| AAGCGGGG | 0.352 |
| AAGCGCGA | 0.436 |
| GAGCGATC | 0.793 |
| GGACGCGG | 0.17 |
| GACCGTAT | 0.549 |
| AGACGGGG | 0.692 |
| CCACGTGT | 0.761 |
| AAACGTTG | 0.283 |
| GGCCGGGT | 0.776 |
| TGACGCTT | 1.05 |
| ACCCGCCC | 2.24 |
| GTTCGAAT | 0.621 |
| TTTCGCCC | 2.2 |
| TTGCGTTA | 1.86 |
| TGGCGCGG | 0.288 |
| GCCCGGTG | 0.679 |
| AGACGACT | 0.561 |
| AAGCGCAA | 0.599 |
| GACCGATA | 1.09 |
| GTACGAAG | 1.29 |
| TCGCGGAC | 1.16 |
| CTGCGAAA | 1.32 |

| Sequence | relative CpG methylation activity |
| --- | --- |
| GGGCGGAG | 0.385 |
| AACCGTGC | 0.379 |
| CCACGTGA | 0.741 |
| TTGCGAAT | 0.969 |
| GCGCGGTA | 0.841 |
| CTACGAAG | 0.858 |
| GTCCGTCC | 2.02 |
| TATCGCAG | 0.425 |
| GGCCGCAA | 0.657 |
| GAACGGCG | 0.598 |
| CGACGCAT | 0.473 |
| CATCGAGA | 0.307 |
| TGGCGCGA | 0.511 |
| CTGCGGCA | 1.54 |
| AACCGCCA | 1.02 |
| TGTCGTAC | 0.709 |
| CATCGACA | 0.882 |
| TAACGGCG | 0.782 |
| TCTCGGCC | 1.46 |
| ACACGAAA | 1.49 |
| AGTCGATT | 0.5 |
| GAACGATG | 0.461 |
| GTGCGAAA | 1.46 |
| TCACGGTG | 0.573 |
| TTCCGACG | 1.77 |

| Sequence | relative CpG methylation activity |
| --- | --- |
| GCACGTAT | 0.826 |
| TCACGCCT | 2.16 |
| GCCCGTCT | 1.29 |
| CCCCGTAC | 1.17 |
| AGGCGGAG | 0.303 |
| AGTCGGCA | 0.604 |
| GGACGCCT | 1.04 |
| GTACGTTC | 1.95 |
| GATCGCTC | 1.32 |
| AATCGCTG | 0.484 |
| GAACGGGG | 0.693 |
| GGACGCCA | 1.08 |
| TACCGAAA | 0.93 |
| CGGCGTCT | 0.298 |
| GGACGGCT | 1 |
| TAGCGTCA | 1.01 |
| CGTCGATC | 0.617 |
| TAACGCGG | 0.271 |
| TTTCGGTA | 0.93 |
| TGTCGCTG | 0.867 |
| ACCCGAAT | 1.11 |
| GTACGGCC | 2.27 |
| AGGCGTAC | 0.5 |
| AGACGCAT | 0.724 |
| ATCCGCAC | 1.91 |

| Sequence | relative CpG methylation activity |
| --- | --- |
| TCACGTAC | 1.51 |
| GCTCGCTA | 0.845 |
| GTGCGAGC | 1.43 |
| GCTCGTAT | 0.654 |
| GGTCGAGG | 0.204 |
| CTGCGCAA | 1.55 |
| GTGCGTTA | 1.12 |
| GACCGATG | 0.705 |
| GTCCGAGT | 1.99 |
| CCACGTTT | 1.1 |
| TAACGCCA | 1.06 |
| GCTCGCCG | 1.72 |
| TGACGTAG | 0.41 |
| CTTCGAGT | 1.05 |
| TGGCGAGC | 0.904 |
| ATGCGATT | 1.37 |
| GGACGGGT | 0.4 |
| ATCCGCGA | 1.03 |
| AGTCGACA | 0.556 |
